The subject of the experiment is wild-type mice. Nature of the experiment: Ethanol CPP test in wild-type mice. As to conditions: donepezil 1 mg/kg 20 min before 20% (v/v) ethanol 10 ml/kg i.p., 3 days, P<0.05 vs saline, FIG. 7.

The structures appear in SMILES notation.

Regarding `COc1cc2c(cc1OC)C(=O)C(CC1CCN(Cc3ccccc3)CC1)C2` (stereo not shown) [donepezil], the “ethanol-induced CPP” value is given as “significantly reduced”.

These data come from patent publication US20060058336A1, “Pharmaceutical composition for treatment of drug dependence” (priority 2003, published 2006).
